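Values below derive from 48-hour exposures of cells grown in 96-well plates, with endpoints linearly interpolated between the two concentrations bracketing the appropriate inhibition level. The concentration for 50% growth inhibition is given as GI50. TGI denotes the concentration required for complete inhibition of growth.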 Peptide text beside a SMILES is read from it. * marks the point of attachment. Cbz = O=C(OCc1ccccc1)*; Boc = CC(C)(C)OC(=O)*; OBn = c1ccc(CO*)cc1

The test system of this experiment is NCI-H322M lung. The experiment in a line: inhibition of tumour cell growth, NCI panel, 48 h.

Regarding `Cc1nc2ccccc2n1Cc1nnc2n1N=C(c1ccccc1)CS2`, the TGI is more than 100 µM.
Turning to `C[C@]12CC[C@@H]3c4ccc(O)cc4CC[C@H]3[C@@H]1CC[C@@H]2NS(=O)(=O)c1ccc2ccccc2c1`, the GI50 was 3.92 µM and the TGI was 23.9 µM.
The compound `CN(C)Cc1cc(C(=O)/C=C/c2ccc(F)cc2)cc(CN(C)C)c1O` showed a TGI of more than 100 µM.
In the case of `Oc1ccccc1C=Nc1ccccc1N=Cc1ccccc1O.[Cu+2]`, the GI50 is 6.63 µM and the TGI turned out to be 20.5 µM.
The like results for `CNCCCn1c2c(c3ccc(F)cc3c1=O)C(=O)c1cc(OC)cnc1-2` were, in that order, 0.449 µM and 4.58 µM.
Compound `O=C1Nc2ccccc2/C1=C\c1c(Cl)nc2n1CCS2` returned a TGI of more than 100 µM.
As for `CC(=O)C1=C(C)N(c2ccccc2)C2(O)C=CC(=O)C3=C(O)c4ccccc4C(=O)C312` (stereo unspecified), the TGI came to 36.7 µM.
For `Cn1c(C(C)(C)OC(=O)Oc2ccccc2)cnc1[N+](=O)[O-]`, the TGI is more than 100 µM.
Compound `CSc1ccc2c(cc1=O)[C@@H](NC(=O)c1ccc([N+](=O)[O-])cc1)CCc1cc(O)c(O)c(O)c1-2` displayed a TGI of more than 100 µM.
Consider `CN=C(NC)N(C)c1nc(=[N+](C)C)ss1`, for which the TGI was more than 100 µM.
As to `CCN(CC)c1ccc(/C=C/C=C(/C#N)C(N)=S)cc1`, the GI50 is 43 µM and the TGI is more than 100 µM.
`COc1ccc(-c2cc(-c3ccccc3)nc3c2CC(=O)Nc2ccccc2-3)cc1OC` had a TGI of more than 100 µM.
Take `COc1ccc2[nH]c(O)c(/C=c3/ccc4c(c3)N=C(c3ccc(F)cc3)N=4)c2c1`: the GI50 is 3.05 µM and the TGI turned out to be 10.7 µM.
Take `O=C(CC1C(=O)Nc2ccccc2S1(=O)=O)Nc1cccc(Cl)c1` (stereo unspecified): the TGI is more than 100 µM.
Regarding `COc1ccc(C#CC2=C(c3cc(OC)c(OC)c(OC)c3)C(=O)OC2)cc1`, the GI50 was 9.09 µM and the TGI was found to be 24.9 µM.
As for `CCN(CC)CCC(=O)/C=C/c1ccc(C)cc1`, the TGI was 29.7 µM.
With `Brc1ccc(C2SCc3nc4ccccc4n32)cc1` (stereo unspecified), the TGI came to 54.2 µM.
The compound `Nc1[nH]c(=S)c2c(N)n[nH]c2c1C(=O)Nc1ccc(Cl)cc1` showed a TGI of more than 100 µM.
Regarding `N=C(N)SCc1ccc([N+](=O)[O-])cc1[N+](=O)[O-]`, the GI50 was 20.4 µM and the TGI was more than 100 µM.
In the case of `O=S(=O)(O)c1ccccc1N=Nc1ccc(N=Nc2c(O)ccc3ccccc23)c(S(=O)(=O)O)c1`, the TGI was more than 100 µM.
`C[n+]1c(/C=C/c2ccc(/C=N/NC(=O)c3ccc(C(=O)N/N=C/c4ccc(/C=C/c5cn6ccccc6[n+]5C)cc4)cc3)cc2)cn2ccccc21` registered a TGI of more than 100 µM.
For `CC1(C)CC(=O)c2c(ccc(C(=O)C[C@@H](N)CO)c2N)O1`, the GI50 is 0.415 µM and the TGI was more than 40.6 µM.
In turn, `COc1cc2c(cc1OC)[C@@H]([C@H](O)c1ccccc1)NCC2` gave a TGI of more than 100 µM.
`Oc1c2c(c(O)c3ccccc13)C1(N=N2)c2ccccc2Oc2ccccc21` returned a TGI of 30.5 µM.
In the case of `COc1ccc(-c2nc(-c3nc4ccc(C(F)(F)F)cc4[nH]3)c3ccccn23)cc1`, the GI50 is more than 100 µM and the TGI is more than 100 µM.
Turning to `CCCCN1CCN(c2ccc3nc(-c4ccc5nc(-c6ccc(OCC)c(OCC)c6)[nH]c5c4)[nH]c3c2)CC1`, the GI50 is 1.27 µM and the TGI stood at 2.67 µM.
`CCOC(=O)CNC(=O)C(C)NC(=O)C(NC(=O)OCc1ccccc1)C(C)C` (stereo not drawn) (Cbz-Val-Ala-Gly-OEt; configuration not given here) registered a TGI of more than 100 µM.
Turning to `COc1cc2cc3c4c(cc(OC)c(OC)c4c2cc1OC)CCN3C(=O)CCC(=O)O`, the TGI was more than 100 µM.
With `CC(C)(C)OC(=O)NCCCCCCCCCCn1c2c(c3ccccc3c1=O)C(=O)c1ccccc1-2`, the GI50 was more than 100 µM and the TGI was more than 100 µM.
In the case of `NC(=O)C1CCCN1C(=O)N(CCCl)N=O` (stereo unspecified), the TGI was more than 100 µM.
Turning to `CS/C=C\C(=O)O[C@H]1C[C@@H]2[C@@H](O)c3occ(C)c3C[C@]2(C)[C@@H](C)C1`, the TGI was more than 100 µM.
The compound `CC(=O)c1ccccc1NS(=O)(=O)c1ccc2nc(C)n(NS(=O)(=O)c3ccccc3C(C)=O)c(=O)c2c1` came in with a TGI of more than 100 µM.
As for `COc1ccc(Oc2cc(NCCC(F)(F)F)c3ncc(-c4ccc(C(=O)NC5CC5)c(C)c4)n3n2)c(F)c1F`, the GI50 was 0.61 µM and the TGI is more than 100 µM.
In the case of `CCCCc1c2c(nc3c1CC/C(=C\c1ccc([N+](=O)[O-])cc1)C3=O)CCCC2`, the TGI came to 8.83 µM.
`O=[N+]([O-])c1ccc(O)c(C=NCC2CCCN3CCCCC23)c1` (stereo unspecified) gave a TGI of more than 100 µM.
In turn, `C=CCn1c(-c2ccc(Cl)cc2Cl)csc1=Nc1c(C)n(C)n(-c2ccccc2)c1=O` returned a TGI of 28 µM.
As for `Nc1ccc(OCCCc2c(-c3ccccc3)nc(N)[nH]c2=O)cc1`, the TGI is more than 100 µM.
`COc1cc2ccc(CC(N)=O)cc2cc1OC` showed a TGI of more than 100 µM.
Consider `Cc1cc(=O)c2ccccc2n1CCCCCCCCCCn1c(C)cc(=O)c2ccccc21`, for which the TGI amounted to 28.7 µM.
As for `O=C1C=C2CC[C@H]3[C@@H]4CC[C@H](Oc5c6ccccc6nc6ccccc56)[C@H]4CC[C@@H]3[C@H]2CC1`, the TGI is more than 100 µM.
The same measure, in the same setting: in the case of `Cc1ccc(NC(=O)/C(=N\NC(N)=O)c2c(O)c3ccccc3[nH]c2=O)cc1` it was more than 100 µM; in that of `NC(=O)CNC(=O)[C@@H]1C[C@@H](OCCC(=O)O)CN1C(=O)OCc1ccccc1`, more than 100 µM.
In the case of `CCn1c(=O)c2c3cc(OC(C)=O)ccc3oc2c2ccc(OC(C)=O)cc21`, the TGI was more than 100 µM.
Regarding `FC(F)(F)c1[nH]ncc1-c1nc2ccc3[nH]ncc3c2c2c1CCCC2`, the GI50 was 1.59 µM and the TGI was found to be 6.45 µM.
For `COc1ccc(C(=O)OC2C(OC3C(O)COC(O[C@H]4C[C@H]5[C@@H]6CC=C7C[C@@H](O)CC[C@]7(C)[C@H]6CC[C@]5(C)[C@H]4[C@H](C)C(=O)CCC(C)C)C3OC(C)=O)OCC(O)C2O)cc1` (stereo partly specified), the GI50 is 0.452 µM and the TGI is 7.73 µM.
Take `O=C1CCC2(c3ccccc3)Nc3ccc(Cl)cc3N12` (stereo unspecified): the TGI is more than 100 µM.
Still for that read-out and setting: in the case of `O=C(NC(=O)c1cc2cc(Br)cc(Br)c2oc1=O)Oc1ccccc1` it was more than 100 µM; in that of `Clc1cccc2c1OCC1C(c3ccccc3)=NN(c3ccccc3)C21` (stereo unspecified), more than 100 µM.
In turn, `CCOC(=O)c1cn2c(ccc3sc4ccccc4c(=O)c32)n1` returned a TGI of more than 100 µM.
In turn, `CC(C)CC(NC(=O)C(Cc1ccccc1)NC(=O)C(Cc1ccccc1)NC(=O)OC(C)(C)C)C(=O)OCc1ccccc1` (stereo not drawn) (Boc-Phe-Phe-Leu-OBn; configuration not given here) returned a TGI of more than 100 µM.
Turning to `CCOC(=O)c1nc2cc(C(F)(F)F)ccc2[n+]([O-])c1C`, the GI50 was more than 100 µM and the TGI is more than 100 µM.
As for `CCOC(=O)C1=C(C)NC(C)=C(C(=O)OCC)C1c1ccc(C)cc1`, the TGI was more than 100 µM.
On the same count and under the same terms, in the case of `COc1cc(C(=O)OCCn2[nH]c(-c3ccc(Cl)cc3)nc2=S)cc(OC)c1OC` it was more than 100 µM.
In turn, `Cc1c(N=NN(C)C)cc[n+]([O-])c1C` had a TGI of more than 100 µM.
`CCOP(=O)(CC(=O)C1=C(O)C(CCCCNC(=O)OC(C)(C)C)N(Cc2ccccc2)C1=O)OCC` (stereo unspecified) gave a TGI of more than 100 µM.
Compound `O=[N+]([O-])c1ccc(COc2cccc3cccnc23)cc1` registered a TGI of more than 100 µM.
Still for that read-out and setting: in the case of `O=S(=O)(/N=C(\NO)Nc1ccc(Cl)cc1)C1CC=C(c2ccon2)S1` (stereo unspecified) it was more than 100 µM; in that of `Oc1ccccc1-c1nn2c(CCCCCCCCc3nnc4sc(-c5ccccc5O)nn34)nnc2s1`, more than 100 µM.
Regarding `O=C(COc1ccc(-c2nc3cc(Cl)c(Cl)cc3[nH]2)cc1)N=Nc1c(O)[nH]c2ccccc12`, the GI50 was 3.25 µM and the TGI was more than 100 µM.
Consider `CC[C@H]1C=CCC[C@@]2(C[C@@H]3CC[C@@H]4[C@H](C(=O)OCCCCCCCCCCCCCCCC(=O)N(CCCNC(C)=O)C[C@H](CCNC(C)=O)OC(C)=O)[C@]5(CCC[C@@H](C)O5)NC(=[N+]34)N2)O1`, for which the TGI amounted to 2.03 µM.
For `COc1cccc(C=C2N=C(C)N(n3c(-c4ccccc4)nc4ccccc4c3=O)C2=O)c1`, the TGI is more than 100 µM.
Same read-out and setting: in the case of `Cc1nc2cccc([N+](=O)[O-])c2n1CCCN(C)C` it was more than 100 µM; in that of `C[C@@](O)(/C=C/[C@H]1CC=CC(=O)O1)[C@@H](C[C@@H](O)\C=C/C=C\C=C\CO)OP(=O)(O)O`, 10.5 µM.
As for `Cc1nc2ccccc2c(=O)n1/N=C/c1ccc(N(C)C)cc1`, the TGI was more than 100 µM.
Consider `CNC(=O)c1cc2c(Oc3ccc(NC(=S)NC(=O)Cc4ccccc4)cc3F)ccnc2cc1OC`, for which the GI50 was more than 100 µM and the TGI is more than 100 µM.
The compound `COC1=CC(=O)NCCN1` had a TGI of more than 100 µM.
Compound `Nc1ncnc2nn(C3OC(CO)C(O)C3O)nc12` (stereo unspecified) came in with a TGI of 99.6 µM.
As for `CC(=O)OC(=C(C#N)C#N)c1nccnc1C(C)=O`, the TGI is more than 20 µM.
Regarding `Clc1ccc(C2=NOC3C4CCC(C4)C23)cc1` (stereo unspecified), the TGI is more than 100 µM.
The compound `COC[C@@H](N=CN1CCc2cc(OC)c(OC)cc2C1)C(C)(C)C` displayed a TGI of more than 100 µM.
On to `N#C/C(=C\c1cccc2cnccc12)N1N=NC2C=CC=CC21` (stereo unspecified), for which the GI50 is 23.2 µM and the TGI was more than 100 µM.
Compound `CCCCCCCCCCCCCCNCC(OCC)OCC` came in with a TGI of 33.8 µM.
The compound `Cc1cccc(C(=O)O)c1CC1NCCC2c3ccccc3NC12` (stereo unspecified) had a TGI of more than 100 µM.
In the case of `Cc1ccc(S(=O)(=O)N2CCCSCCN(S(=O)(=O)c3ccc(C)cc3)CCCSCC2)cc1`, the TGI was more than 100 µM.
For `NCCN1C(=O)c2ccccc2C1(O)c1ccc(Cl)cc1` (stereo unspecified), the TGI came to 50.9 µM.
In turn, `CNc1nc2c(C)ccc3[nH]c(N(C)C)nc3c-2n1` gave a TGI of more than 100 µM.
`COc1ccc(-c2nc3c(nc2-c2ccc(OC)cc2)N(C)S(=O)(=O)N=C3N)cc1`: the TGI was more than 100 µM.
With `CC(C)(C)N=CN(C=C(c1ccccc1)c1ccccc1)C1CCCCC1`, the TGI is more than 100 µM.
As for `C[N+](C)(C)C(C1=CCCC1=O)c1ccccc1` (stereo unspecified), the TGI was more than 100 µM.
As to `Nc1nc(-c2cc(-c3cccc4ccccc34)nc(N)n2)cc(-c2cccc3ccccc23)n1`, the TGI is more than 100 µM.
`O=C1CCCN1CCCN=c1cc2n(-c3ccc(Cl)cc3)c3ccccc3nc-2cc1Nc1ccc(Cl)cc1`: the TGI came out at 76 µM.
The compound `N=C(N)SCc1ccc(N=C=S)cc1` gave a TGI of 29.6 µM.
`COC(=O)C1C(O)C(C)C(O)OC1C(C)C(O)C(C)/C=C\C=C(/C)C(=O)Nc1c(C)c(OC(C)=O)c2c(c1O)C(=O)C(C)=C1OCOC(/C(C)=C/C(C)=O)=C12` (stereo unspecified) registered a TGI of 23.7 µM.

The values are drawn from PubChem BioAssay (NCI).
